{"source": "PubChem BioAssay AID1476", "about": "(National Center for Advancing Translational Sciences (NCATS), 2009)", "note": "Several values for one entry are separate records, joined by “and”; a condition that tells them apart may be missing. Equal values may be shown once. The campaign covered roughly 200,000 compounds. About 4,500 (2.2%) were called active. The inconclusive results got no clear call from the source; some entries with a clear call stand among them for comparison. The call rests on the fitted dose curve; in most records, active means well fitted inhibition curve with a large enough effect; inconclusive means small, poorly fitted or top-dose-only effect, or effect the other way; inactive means flat fitted curve, though single readings scatter. Potencies of inconclusive entries are doubtful fits and often do not repeat."}
{"biological_target": "Cruzipain (Trypanosoma cruzi) (UniProt P25779)", "sequence (P25779 whole entry, looked up)": "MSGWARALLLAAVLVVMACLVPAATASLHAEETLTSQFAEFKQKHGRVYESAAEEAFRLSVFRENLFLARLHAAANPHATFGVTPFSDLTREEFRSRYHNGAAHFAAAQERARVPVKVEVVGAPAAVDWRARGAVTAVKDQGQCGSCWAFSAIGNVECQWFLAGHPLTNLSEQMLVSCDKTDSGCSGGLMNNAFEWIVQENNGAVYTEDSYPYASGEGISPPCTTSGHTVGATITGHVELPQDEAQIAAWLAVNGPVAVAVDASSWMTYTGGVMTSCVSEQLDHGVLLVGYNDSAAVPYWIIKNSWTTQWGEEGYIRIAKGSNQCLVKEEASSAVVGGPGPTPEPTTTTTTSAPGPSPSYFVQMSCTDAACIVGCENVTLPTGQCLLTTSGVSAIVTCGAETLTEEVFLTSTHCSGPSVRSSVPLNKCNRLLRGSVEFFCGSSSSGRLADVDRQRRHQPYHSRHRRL", "experiment": "qHTS Assay for Promiscuous and Specific Inhibitors of Cruzain (without detergent); further: nearly all actives have a fitted effect of over 40% in size; further: potency means the concentration at half of the fitted maximal effect; tags describe the fitted curve by direction and shape;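 on max response, negative = inhibition: plate controls were enzyme without inhibitor for no effect and buffer without enzyme for full effect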", "conditions": "purified cruzain, Z-FR-AMC fluorescence, no detergent", "in_short": "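Purified cruzain at 1.5 nM, pre-incubated 15 min with compound at room temperature in 100 mM sodium acetate pH 5.5, 5 mM DTT, 0.00005% Triton X-100. Reaction started with 2 uM Z-FR-AMC; AMC fluorescence increase over 60 s gives rate.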"}
{"compound": "COc1ccccc1N1CCN(C(CNC(=O)C(=O)NCCc2ccccc2)c2cccnc2)CC1", "note": "(stereo unspecified)", "Potency": "inconclusive: 39.8 µM [activator, single point]"}
{"compound": "CN1CC=C2C(C#N)=C(N)C(C#N)(C#N)[C@H](c3ccoc3)[C@H]2C1", "Potency": "inconclusive: 39.8 µM [inhibitor, single point]"}
{"compound": "O=C(Nc1ccccc1)C1=C(N2CCOCC2)/C(=C/c2cccnc2)CC1", "Potency": "inconclusive: 39.8 µM [activator, single point]"}
{"compound": "CC1(C)COCN1S(=O)(=O)c1ccc(C(=O)Nc2nnc(-c3ccc(Cl)s3)o2)cc1", "Potency": "inconclusive: 25.1 µM [inhibitor, single point]"}
{"compound": "CC(=O)Nc1ccc(S(=O)(=O)NNC(=O)c2cc3c4ccccc4n(C)c3s2)cc1", "max response, negative = inhibition": "inactive: -20.2%"}
{"compound": "CCc1cc2c(CN3CCN(CCO)CC3)cc(=O)oc2cc1O", "Potency": "inconclusive: 39.8 µM [inhibitor, single point]"}
{"compound": "CCN(CC)c1ccc(C2C(C(N)=O)=C(C)Nc3ncnn32)cc1", "note": "(stereo unspecified)", "max response, negative = inhibition": "inactive: 12.8%"}
{"compound": "CCc1ccc(NCc2cc3cc4c(cc3n(CC(=O)Nc3ccc(F)cc3)c2=O)OCCO4)cc1", "Potency": "active: 20 µM"}
{"compound": "Cc1coc2cc3oc(=O)c(Cc4ccccc4)c(C)c3cc12", "Potency": "inconclusive: 39.8 µM [inhibitor, single point]"}
{"compound": "O=C(CSc1nc2ccccc2[nH]1)NC1CCCc2ccccc21", "note": "(stereo unspecified)", "max response, negative = inhibition": "inactive: 1.87%"}
{"compound": "CC(/C=C/c1cccc([N+](=O)[O-])c1)=N/NC(=O)c1cccnc1", "Potency": "inconclusive: 31.6 µM [inhibitor, single point]"}
{"compound": "COCCNc1ncnc2c1c(-c1ccccc1)cn2-c1cccc(Cl)c1", "Potency": "inconclusive: 31.6 µM [activator, single point]"}
{"compound": "O=S(=O)(N/N=C\\c1cccn1-c1ccccc1)c1ccc2ccccc2c1", "Potency": "inconclusive: 39.8 µM [inhibitor, single point]"}
{"compound": "O=C(Nc1cccc(S(=O)(=O)N2CCOCC2)c1)c1c2c(nc3ccccc13)CCC2", "Potency": "inconclusive: 25.1 µM [activator, single point]"}
{"compound": "COc1cccc(NC(=S)N/N=C2/CCCCc3ccccc32)c1", "Potency": "inconclusive: 31.6 µM [inhibitor, single point]"}
{"compound": "COc1ccc([N+](=O)[O-])cc1NC(=O)COC(=O)c1ccccc1C(=O)c1ccccc1", "Potency": "inconclusive: 31.6 µM [inhibitor, single point]"}
{"compound": "CC(C)Oc1ccc(/C=N/NC(=O)C(CSCc2ccccc2)NC(=O)c2ccc([N+](=O)[O-])cc2)cc1", "note": "(stereo unspecified)", "Potency": "active: 20 µM"}
{"compound": "Cc1cc(C)cc(N2C(=O)CN(Cc3sccc3C)C2=S)c1", "Potency": "inconclusive: 39.8 µM [inhibitor, single point]"}
{"compound": "Cc1ccsc1/C=N/Nc1nc2ccccc2s1", "Potency": "inconclusive: 25.1 µM [inhibitor, single point]"}
{"compound": "C[C@@H]1NC(=O)c2cc([N+](=O)[O-])cc(I)c2OCC[C@@H](C(=O)NC(CC(=O)O)C(N)=O)NC(=O)[C@H](CC(N)=O)NC1=O", "note": "(stereo partly specified)", "Potency": "inconclusive: 25.1 µM [activator, single point]"}
{"compound": "COc1ccccc1NC(=O)C1=C(C)Nc2nc(SCc3cc(C)ccc3C)nn2C1c1ccccc1", "note": "(stereo unspecified)", "max response, negative = inhibition": "inactive: 3.72%"}
{"compound": "COCCCNC(=O)CCc1c(C)nc2cc(-c3ccc(Cl)cc3)nn2c1C", "Potency": "inconclusive: 25.1 µM [activator, single point]"}
{"compound": "CN(C)c1ccc([C@@H]2[C@@H]([N+](=O)[O-])[C@H]3C=Cc4ccccc4N3[C@H]2C(=O)c2ccc(Cl)cc2)cc1", "Potency": "active: 7.94 µM"}
{"compound": "O=C(c1cccs1)N1CCCc2cc(NS(=O)(=O)c3ccc(F)cc3)ccc21", "max response, negative = inhibition": "inactive: 7.84%"}
{"compound": "CCCCN(CC)C(=O)Cn1cnc2ccc(S(=O)(=O)N3CCC(C)CC3)cc2c1=O", "Potency": "inconclusive: 39.8 µM [activator, single point]"}
{"compound": "C[N@@+]1(Cc2ccc(Cl)c(Cl)c2)CCC[C@@H]1c1ccc[n+](Cc2ccc(Cl)c(Cl)c2)c1", "max response, negative = inhibition": "inactive: 25.9%"}
{"compound": "CCOC(=O)C(C#N)c1ccccn1", "note": "(stereo unspecified)", "max response, negative = inhibition": "inactive: -7.7%"}
{"compound": "CCOc1ccc(C(=O)N2CCN(Cc3cc(=O)n4nc(-c5ccccc5Cl)sc4n3)CC2)cc1", "max response, negative = inhibition": "inactive: -10.7%"}
{"compound": "O=S1(=O)c2ccccc2N=NN1Cc1cc(Cl)cc(Cl)c1", "Potency": "inconclusive: 39.8 µM [inhibitor, single point]"}
{"compound": "Cc1ccc(C(=O)Nc2nc(-c3cc(Cl)sc3Cl)cs2)cc1", "Potency": "inconclusive: 39.8 µM [inhibitor, single point]"}
{"compound": "Cc1nnc(SCC(=O)N2c3ccccc3C(C)(c3ccc(Cl)cc3)CC2(C)C)s1", "note": "(stereo unspecified)", "max response, negative = inhibition": "inactive: -0.125%"}
{"compound": "CCn1c(=O)n(CC)c2cc(N3CCCCC3)c(NC(=O)Nc3cc(Cl)ccc3OC)cc21", "max response, negative = inhibition": "inactive: 5.22%"}
{"compound": "COc1ccccc1NC(=O)CC1Nc2ccccc2NC1=O", "note": "(stereo unspecified)", "Potency": "inconclusive: 25.1 µM [inhibitor, single point]"}
{"compound": "Cc1nn2c(-c3cccc(NC(=O)c4ccc(Cl)cc4)c3)nnc2c2ccccc12", "max response, negative = inhibition": "inactive: -4.41%"}
{"compound": "COC(=O)[C@@]1(Cc2ccc(OC)cc2)[C@H]2c3cc(C(=O)N(C)C)n(CCSCCO)c3C[C@H]2CN1C(=O)c1ccccc1", "Potency": "inconclusive: 25.1 µM [activator, partial curve] and inconclusive: 3.98 µM [activator, full curve]"}
{"compound": "N#Cc1cccc(-n2c(-c3ccccc3)nnc2-c2ccccc2)c1C#N", "Potency": "inconclusive: 20 µM [inhibitor, single point]"}
{"compound": "CCN(CCCNC(=O)c1cc2cc3ccc(OC)cc3nc2s1)c1ccccc1", "Potency": "active: 31.6 µM"}
{"compound": "CC1CCCCN1S(=O)(=O)c1ccc2c(c1)oc(=O)n2CC(=O)Nc1ccc(Cl)cc1", "note": "(stereo unspecified)", "max response, negative = inhibition": "inactive: -2.62%"}
{"compound": "COc1ccc(-c2nc3cnc(N4CCOCC4)nc3n(Cc3cccc(OC)c3)c2=O)cc1", "max response, negative = inhibition": "inactive: -0.314%"}
{"compound": "O=C(NCCC1=CCCCC1)C1CCN(S(=O)(=O)c2cccc3nsnc23)CC1", "Potency": "active: 25.1 µM"}
{"compound": "Cc1ccc(-c2csc(N/N=C/c3ccco3)n2)cc1", "Potency": "inconclusive: 31.6 µM [inhibitor, single point]"}
